# Test results: the supplement of paper PMC8728848
# The other results are listed elsewhere or left out.
# B1: Epa10 (protein)
# chain: MNEKIFRYLTLLFLFELARSLPVEDKLNIKKVFEKRAVDFTPFAHYPRPEGCSSPPNSVSVGLHMNLYNYPYLYVKPSTKGMFTNDTNSDADGETDGDSAGGIEGRAGQCWNPEYQDPNFPRFGYKQYGEFGASDNVNGDISWDHNEFTEGCKPVLAALPPGYNYPDEITFSNFTMVLSGYFKPKTSGVYKFELKADDFILFNFGAKNAFECCNREESIDNFGPYVAYAMWPNQADQELEVYLFEDSYYPLRLFYNNRDYHSKFKIGFYPPGQTTITFDFDGYLFMLDDTGNECRDSIRYRTVCDDKVVDDTTYSTRYSTSMVPGGGSDVITIYYIRMKCEEEDCLGQWDPINNVCYSPDDCADDGGYWNGQMCDQSCKLEGGIVNPDTGDCDKSCIESGGFLDENGNCDTTCRDDGGMLVEGQCDYQCKEAGGILVGDHCDTTCVDSGGKLNEDGTCDHSCRDQGGQLDENGECDTSCKDSGGMLIEGECDTSCKDEGGQLDDNNECINHCKDQGGIIDENGNCDTSCKDSGGKLDESGACDTSCRDDGGIIDENGNCNTTCRDDGGIIVGDHCDTSCRDAGGILIEDHCDTTCRDSGGKLNEDGTCDHSCRDQGGQLDENGKCDYSCKNGGGKLDEDGNCDMSCKENGGKLDENGDCDLSCKEDGGKLDGNGDCDYSCKEEGGVIDESGNCNTTCKDSGGQIIDGECNYGCIEVGGVVIDGECDTSCIDSGGILDGDGNCDRSCIESGGVLEDGACNTTCRDSGGQLNVDGTCDTSCRDDGGMLVEGQCDYQCKEAGGILEDGECVFPPTSSSTSETSSTTDQSSLQSDDSSMESSSTPMDSSTIESSSSEIITSESESESVPIASSSSEVMTSESESESIPILTSSSEIPIASSSSEIPVASSSSEIIIPESESESVPVASSSSEIPIASSSSEIPVASSSSEIPVASSSSEIIIPESESESIPIESTSSEAVSSRSESDSSYPTPTPTTTTITTWPNPIQPTTSNSSPIVSSSTETPGIAESSSRISDLESSRRTSILGDDRTRTRTTITSTITEDGQIITITTTVTGFVPEPTGETEGNGSDDENPENPIENNTDENEFLDPEFTDDIPDDPAGPEDNGNGPVNPEQGNDNDPVNLEDSGNNGAVNPEQAPVNDEDNGGNDPVNPEQDNNNGPANPGQDSTNGSGNSDQIDNNPPTPEENAGDGNSNGNDPADPSRRTSILGDERTRASPGGTSQPTGANGNVNGNSPGANVNGGGTGNSNNNNNNNNNNNNGNAPNGGDGSNGDANQGPSRRTSLLGDERTRAGQAAPTGGSSPDNGIAGDTSNNGGAIVSQQVDDGGAGSPRRTSILGDVRSRTTLNGEVLNFEGSGVRRAVAGNLALPLMMVGLVFNL
# Key:
# Assay in all cases: glycan array binding signal (z-score within array); higher = stronger binding
# Details in all cases: glycan notation: IUPAC condensed, linker removed
# [1] = biological target: Neu5Ac(a2-3)Gal(b1-3)GlcNAc6S
# Procedure, shortened: (§1)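 Glycan array data were curated from 3228 arrays in the Consortium for Functional Glycomics database and kept only where the protein sequence was available. Glycan names were converted to IUPAC-condensed notation, and columns mapping to the same glycan were averaged. The binding signal is a within-array Z-score, averaged across arrays of the same protein sequence at different concentrations or buffers and across linkers. Negative Z-scores can be read as non-binding.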
# [2] = biological target: Neu5Ac(a2-3)Gal(b1-3)[Fuc(a1-4)]GlcNAc
# Procedure, shortened: as §1
# [3] = biological target: Neu5Ac(a2-3)Gal(b1-3)[Fuc(a1-4)]GlcNAc(b1-3)Gal(b1-3)[Fuc(a1-4)]GlcNAc
# Procedure, shortened: as §1
# [4] = biological target: Neu5Ac(a2-3)Gal(b1-3)[Fuc(a1-4)]GlcNAc(b1-3)Gal(b1-4)[Fuc(a1-3)]GlcNAc
# Procedure, shortened: as §1
# [5] = biological target: Neu5Ac(a2-3)Gal(b1-3)[GlcNAc(b1-6)]GalNAc
# Procedure, shortened: as §1
# [6] = biological target: Neu5Ac(a2-3)Gal(b1-3)[Neu5Ac(a2-6)]GalNAc
# Procedure, shortened: as §1
# [7] = biological target: Neu5Ac(a2-3)Gal(b1-3)[Neu5Ac(a2-6)]GlcNAc(b1-3)[Fuc(a1-3)[Gal(b1-4)]GlcNAc(b1-6)]Gal(b1-4)Glc
# Procedure, shortened: as §1
# [8] = biological target: Neu5Ac(a2-3)Gal(b1-3)]Neu5Ac(a2-3)Gal(b1-4)]GlcNAc
# Procedure, shortened: as §1
# [9] = biological target: Neu5Ac(a2-3)Gal(b1-4)Glc
# Procedure, shortened: as §1
# [10] = biological target: Neu5Ac(a2-3)Gal(b1-4)GlcNAc
# Procedure, shortened: as §1
# [11] = biological target: Neu5Ac(a2-3)Gal(b1-4)GlcNAc(b1-2)Man
# Procedure, shortened: as §1
# [12] = biological target: Neu5Ac(a2-3)Gal(b1-4)GlcNAc(b1-2)Man(a1-3)[GlcNAc(b1-4)][Neu5Ac(a2-3)Gal(b1-4)GlcNAc(b1-2)Man(a1-6)]Man(b1-4)GlcNAc(b1-4)GlcNAc
# Procedure, shortened: as §1
# [13] = biological target: Neu5Ac(a2-3)Gal(b1-4)GlcNAc(b1-2)Man(a1-3)[Neu5Ac(a2-3)Gal(b1-4)GlcNAc(b1-2)Man(a1-6)]Man(b1-4)GlcNAc(b1-4)GlcNAc
# Procedure, shortened: as §1
# [14] = biological target: Neu5Ac(a2-3)Gal(b1-4)GlcNAc(b1-2)Man(a1-3)[Neu5Ac(a2-3)Gal(b1-4)GlcNAc(b1-2)Man(a1-6)]Man(b1-4)GlcNAc(b1-4)[Fuc(a1-6)]GlcNAc
# Procedure, shortened: as §1
# [15] = biological target: Neu5Ac(a2-3)Gal(b1-4)GlcNAc(b1-2)Man(a1-3)[Neu5Ac(a2-6)Gal(b1-4)GlcNAc(b1-2)Man(a1-6)]Man(b1-4)GlcNAc(b1-4)GlcNAc
# Procedure, shortened: as §1
# [16] = biological target: Neu5Ac(a2-3)Gal(b1-4)GlcNAc(b1-2)[Neu5Ac(a2-3)Gal(b1-4)GlcNAc(b1-4)]Man(a1-3)[GlcNAc(b1-4)][Neu5Ac(a2-3)Gal(b1-4)GlcNAc(b1-2)[Neu5Ac(a2-3)Gal(b1-4)GlcNAc(b1-6)]Man(a1-6)]Man(b1-4)GlcNAc(b1-4)GlcNAc
# Procedure, shortened: as §1
# [17] = biological target: Neu5Ac(a2-3)Gal(b1-4)GlcNAc(b1-2)[Neu5Ac(a2-3)Gal(b1-4)GlcNAc(b1-4)]Man(a1-3)[GlcNAc(b1-4)][Neu5Ac(a2-3)Gal(b1-4)GlcNAc(b1-4)Man(a1-6)]Man(b1-4)GlcNAc(b1-4)GlcNAc
# Procedure, shortened: as §1
# [18] = biological target: Neu5Ac(a2-3)Gal(b1-4)GlcNAc(b1-2)[Neu5Ac(a2-3)Gal(b1-4)GlcNAc(b1-6)]Man(a1-6)[Neu5Ac(a2-3)Gal(b1-4)GlcNAc(b1-2)Man(a1-3)][GlcNAc(b1-4)]Man(b1-4)GlcNAc(b1-4)GlcNAc
# Procedure, shortened: as §1
# [19] = biological target: Neu5Ac(a2-3)Gal(b1-4)GlcNAc(b1-3)Gal
# Procedure, shortened: as §1
# [20] = biological target: Neu5Ac(a2-3)Gal(b1-4)GlcNAc(b1-3)Gal(b1-3)GlcNAc
# Procedure, shortened: as §1
# [21] = biological target: Neu5Ac(a2-3)Gal(b1-4)GlcNAc(b1-3)Gal(b1-4)GlcNAc
# Procedure, shortened: as §1
# [22] = biological target: Neu5Ac(a2-3)Gal(b1-4)GlcNAc(b1-3)Gal(b1-4)GlcNAc(b1-2)Man(a1-3)[Neu5Ac(a2-3)Gal(b1-4)GlcNAc(b1-3)Gal(b1-4)GlcNAc(b1-2)Man(a1-6)]Man(b1-4)GlcNAc(b1-4)GlcNAc
# Procedure, shortened: as §1
# [23] = biological target: Neu5Ac(a2-3)Gal(b1-4)GlcNAc(b1-3)Gal(b1-4)GlcNAc(b1-3)Gal(b1-4)GlcNAc
# Procedure, shortened: as §1
# [24] = biological target: Neu5Ac(a2-3)Gal(b1-4)GlcNAc(b1-3)Gal(b1-4)GlcNAc(b1-3)Gal(b1-4)GlcNAc(b1-2)Man(a1-3)[Neu5Ac(a2-3)Gal(b1-4)GlcNAc(b1-3)Gal(b1-4)GlcNAc(b1-3)Gal(b1-4)GlcNAc(b1-2)Man(a1-6)]GalNAc
# Procedure, shortened: as §1
# [25] = biological target: Neu5Ac(a2-3)Gal(b1-4)GlcNAc(b1-3)Gal(b1-4)GlcNAc(b1-3)GalNAc
# Procedure, shortened: as §1
# [26] = biological target: Neu5Ac(a2-3)Gal(b1-4)GlcNAc(b1-3)Gal(b1-4)GlcNAc(b1-3)[Neu5Ac(a2-3)Gal(b1-4)GlcNAc(b1-3)Gal(b1-4)GlcNAc(b1-6)]GalNAc
# Procedure, shortened: as §1
# [27] = biological target: Neu5Ac(a2-3)Gal(b1-4)GlcNAc(b1-3)Gal(b1-4)GlcNAc(b1-6)[Gal(b1-3)]GalNAc
# Procedure, shortened: as §1
# [28] = biological target: Neu5Ac(a2-3)Gal(b1-4)GlcNAc(b1-3)Gal(b1-4)[Fuc(a1-3)]GlcNAc
# Procedure, shortened: as §1
# [29] = biological target: Neu5Ac(a2-3)Gal(b1-4)GlcNAc(b1-3)GalNAc
# Procedure, shortened: as §1
# [30] = biological target: Neu5Ac(a2-3)Gal(b1-4)GlcNAc(b1-3)[Neu5Ac(a2-3)Gal(b1-4)GlcNAc(b1-6)]GalNAc
# Procedure, shortened: as §1
binder,measurement,setting,value
B1,glycan array binding signal (z-score),[1],-0.232
same,glycan array binding signal (z-score),[2],-0.218
same,glycan array binding signal (z-score),[3],-0.188
same,glycan array binding signal (z-score),[4],-0.247
same,glycan array binding signal (z-score),[5],-0.193
same,glycan array binding signal (z-score),[6],-0.007
same,glycan array binding signal (z-score),[7],-0.237
same,glycan array binding signal (z-score),[8],-0.265
same,glycan array binding signal (z-score),[9],-0.269
same,glycan array binding signal (z-score),[10],-0.23
same,glycan array binding signal (z-score),[11],-0.049
same,glycan array binding signal (z-score),[12],-0.239
same,glycan array binding signal (z-score),[13],-0.253
same,glycan array binding signal (z-score),[14],-0.247
same,glycan array binding signal (z-score),[15],-0.195
same,glycan array binding signal (z-score),[16],-0.221
same,glycan array binding signal (z-score),[17],-0.16
same,glycan array binding signal (z-score),[18],-0.298
same,glycan array binding signal (z-score),[19],-0.172
same,glycan array binding signal (z-score),[20],-0.284
same,glycan array binding signal (z-score),[21],-0.259
same,glycan array binding signal (z-score),[22],-0.037
same,glycan array binding signal (z-score),[23],-0.197
same,glycan array binding signal (z-score),[24],-0.156
same,glycan array binding signal (z-score),[25],-0.244
same,glycan array binding signal (z-score),[26],-0.234
same,glycan array binding signal (z-score),[27],0.519
same,glycan array binding signal (z-score),[28],-0.305
same,glycan array binding signal (z-score),[29],-0.204
same,glycan array binding signal (z-score),[30],-0.282
